# ± gives the standard deviation of the averaged measurements. Laboratory Escherichia coli strains with one amino-acid change in an essential protein, pooled on minimal glucose agar with carbenicillin or gentamicin at twice the control MIC (plus kanamycin and chloramphenicol for the plasmids), 48 h. Fold change of barcode share against drug-free plates; higher = less susceptible. Active = above 20 in both replicates (the paper's putatively resistant). '<' = one read or none on drug, '>' = one read or none on a drug-free plate. Shares are relative, so most strains fall below 1 when a few take over. Listed are strains with at least 15 reads on both drug-free plates, and hits; most hits rest on fewer reference reads. Replicate rank correlation about 0.5. Edits are read from barcodes.
# Target: Escherichia coli (laboratory strain)
# Experiment: barcode share on antibiotic plates over drug-free plates; higher = less susceptible
# Description: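 A pool of E. coli strains, each edited to carry one amino-acid change in an essential protein, was grown for 48 h on minimal glucose agar with or without antibiotic; strain barcodes were sequenced; mean of two replicates.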
# [1] = antibiotic: carbenicillin, 2× MIC (3.1 µg/mL)
# [2] = antibiotic: gentamicin, 2× MIC (MIC 0.45 µg/mL)
Protein,fold change of barcode share [1],fold change of barcode share [2]
accA I115A (protein) MSLNFLDFEQPIAELEAKIDSLTAVSRQDEKLDINIDEEVHRLREKSVELTRKIFADLGAWQIAQLARHPQRPYTLDYVRLAFDEFDELAGDRAYADDKAIVGGIARLDGRPVMAIGHQKGRETKEKIRRNFGMPAPEGYRKALRLMQMAERFKMPIITFIDTPGAYPGVGAEERGQSEAIARNLREMSRLGVPVVCTVIGEGGSGGALAIGVGDKVNMLQYSTYSVISPEGCASILWKSADKAPLAAEAMGIIAPRLKELKLIDSIIPEPLGGAHRNPEAMAASLKAQLLADLADLDVLSTEDLKNRRYQRLMSYGYA,0.354 ± 0.049,0.00998 ± 0.0084
purH V21A (protein) MQQRRPVRRALLSVSDKAGIAEFAQALSARGVELLSTGGTARLLAEKGLPVTEVSDYTGFPEMMDGRVKTLHPKVHGGILGRRGQDDAIMEEHQIQPIDMVVVNLYPFAQTVAREGCSLEDAVENIDIGGPTMVRSAAKNHKDVAIVVKSSDYDAIIKEMDDNEGSLTLATRFDLAIKAFEHTAAYDSMIANYFGSMVPAYHGESKEAAGRFPRTLNLNFIKKLDMRYGENSHQQAAFYIEENVKEASVATATQVQGKALSYNNIADTDAALECVKEFAEPACVIVKHANPCGVAIGNSILDAYDRAYKTDPTSAFGGIIAFNRELDAETAQAIISRQFVEVIIAPSASEEALKITAAKQNVRVLTCGQWGERVPGLDFKRVNGGLLVQDRDLGMVGAEELRVVTKRQPSEQELRDALFCWKVAKFVKSNAIVYAKNNMTIGIGAGQMSRVYSAKIAGIKAADEGLEVKGSSMASDAFFPFRDGIDAAAAAGVTCVIQPGGSIRDDEVIAAADEHGIAMLFTDMRHFRH,0.508 ± 0.09,0.0131 ± 0.0089
purH V21Q (protein) MQQRRPVRRALLSVSDKAGIQEFAQALSARGVELLSTGGTARLLAEKGLPVTEVSDYTGFPEMMDGRVKTLHPKVHGGILGRRGQDDAIMEEHQIQPIDMVVVNLYPFAQTVAREGCSLEDAVENIDIGGPTMVRSAAKNHKDVAIVVKSSDYDAIIKEMDDNEGSLTLATRFDLAIKAFEHTAAYDSMIANYFGSMVPAYHGESKEAAGRFPRTLNLNFIKKLDMRYGENSHQQAAFYIEENVKEASVATATQVQGKALSYNNIADTDAALECVKEFAEPACVIVKHANPCGVAIGNSILDAYDRAYKTDPTSAFGGIIAFNRELDAETAQAIISRQFVEVIIAPSASEEALKITAAKQNVRVLTCGQWGERVPGLDFKRVNGGLLVQDRDLGMVGAEELRVVTKRQPSEQELRDALFCWKVAKFVKSNAIVYAKNNMTIGIGAGQMSRVYSAKIAGIKAADEGLEVKGSSMASDAFFPFRDGIDAAAAAGVTCVIQPGGSIRDDEVIAAADEHGIAMLFTDMRHFRH,0.528 ± 0.014,0.0137 ± 0.0058
purH V21D (protein) MQQRRPVRRALLSVSDKAGIDEFAQALSARGVELLSTGGTARLLAEKGLPVTEVSDYTGFPEMMDGRVKTLHPKVHGGILGRRGQDDAIMEEHQIQPIDMVVVNLYPFAQTVAREGCSLEDAVENIDIGGPTMVRSAAKNHKDVAIVVKSSDYDAIIKEMDDNEGSLTLATRFDLAIKAFEHTAAYDSMIANYFGSMVPAYHGESKEAAGRFPRTLNLNFIKKLDMRYGENSHQQAAFYIEENVKEASVATATQVQGKALSYNNIADTDAALECVKEFAEPACVIVKHANPCGVAIGNSILDAYDRAYKTDPTSAFGGIIAFNRELDAETAQAIISRQFVEVIIAPSASEEALKITAAKQNVRVLTCGQWGERVPGLDFKRVNGGLLVQDRDLGMVGAEELRVVTKRQPSEQELRDALFCWKVAKFVKSNAIVYAKNNMTIGIGAGQMSRVYSAKIAGIKAADEGLEVKGSSMASDAFFPFRDGIDAAAAAGVTCVIQPGGSIRDDEVIAAADEHGIAMLFTDMRHFRH,0.498 ± 0.15,0.0113 ± 0.0054
purH V21W (protein) MQQRRPVRRALLSVSDKAGIWEFAQALSARGVELLSTGGTARLLAEKGLPVTEVSDYTGFPEMMDGRVKTLHPKVHGGILGRRGQDDAIMEEHQIQPIDMVVVNLYPFAQTVAREGCSLEDAVENIDIGGPTMVRSAAKNHKDVAIVVKSSDYDAIIKEMDDNEGSLTLATRFDLAIKAFEHTAAYDSMIANYFGSMVPAYHGESKEAAGRFPRTLNLNFIKKLDMRYGENSHQQAAFYIEENVKEASVATATQVQGKALSYNNIADTDAALECVKEFAEPACVIVKHANPCGVAIGNSILDAYDRAYKTDPTSAFGGIIAFNRELDAETAQAIISRQFVEVIIAPSASEEALKITAAKQNVRVLTCGQWGERVPGLDFKRVNGGLLVQDRDLGMVGAEELRVVTKRQPSEQELRDALFCWKVAKFVKSNAIVYAKNNMTIGIGAGQMSRVYSAKIAGIKAADEGLEVKGSSMASDAFFPFRDGIDAAAAAGVTCVIQPGGSIRDDEVIAAADEHGIAMLFTDMRHFRH,0.395 ± 0.043,< 0.0115
purE V91A (protein) MSSRNNPARVAIVMGSKSDWATMQFAAEIFEILNVPHHVEVVSAHRTPDKLFSFAESAEENGYQVIIAGAGGAAHLPGMIAAKTLVPVLGAPVQSAALSGVDSLYSIVQMPRGIPVGTLAIGKAGAANAALLAAQILATHDKELHQRLNDWRKAQTDEVLENPDPRGAA,0.362 ± 0.032,< 0.00703
purE I29Q (protein) MSSRNNPARVAIVMGSKSDWATMQFAAEQFEILNVPHHVEVVSAHRTPDKLFSFAESAEENGYQVIIAGAGGAAHLPGMIAAKTLVPVLGVPVQSAALSGVDSLYSIVQMPRGIPVGTLAIGKAGAANAALLAAQILATHDKELHQRLNDWRKAQTDEVLENPDPRGAA,0.233 ± 0.056,< 0.00556
purE I29A (protein) MSSRNNPARVAIVMGSKSDWATMQFAAEAFEILNVPHHVEVVSAHRTPDKLFSFAESAEENGYQVIIAGAGGAAHLPGMIAAKTLVPVLGVPVQSAALSGVDSLYSIVQMPRGIPVGTLAIGKAGAANAALLAAQILATHDKELHQRLNDWRKAQTDEVLENPDPRGAA,0.622 ± 0.12,
purE I32A (protein) MSSRNNPARVAIVMGSKSDWATMQFAAEIFEALNVPHHVEVVSAHRTPDKLFSFAESAEENGYQVIIAGAGGAAHLPGMIAAKTLVPVLGVPVQSAALSGVDSLYSIVQMPRGIPVGTLAIGKAGAANAALLAAQILATHDKELHQRLNDWRKAQTDEVLENPDPRGAA,0.288 ± 0.12,< 0.013
purE I32Q (protein) MSSRNNPARVAIVMGSKSDWATMQFAAEIFEQLNVPHHVEVVSAHRTPDKLFSFAESAEENGYQVIIAGAGGAAHLPGMIAAKTLVPVLGVPVQSAALSGVDSLYSIVQMPRGIPVGTLAIGKAGAANAALLAAQILATHDKELHQRLNDWRKAQTDEVLENPDPRGAA,0.399 ± 0.14,< 0.00424
purE V91P (protein) MSSRNNPARVAIVMGSKSDWATMQFAAEIFEILNVPHHVEVVSAHRTPDKLFSFAESAEENGYQVIIAGAGGAAHLPGMIAAKTLVPVLGPPVQSAALSGVDSLYSIVQMPRGIPVGTLAIGKAGAANAALLAAQILATHDKELHQRLNDWRKAQTDEVLENPDPRGAA,0.418 ± 0.094,< 0.0052
purE V91D (protein) MSSRNNPARVAIVMGSKSDWATMQFAAEIFEILNVPHHVEVVSAHRTPDKLFSFAESAEENGYQVIIAGAGGAAHLPGMIAAKTLVPVLGDPVQSAALSGVDSLYSIVQMPRGIPVGTLAIGKAGAANAALLAAQILATHDKELHQRLNDWRKAQTDEVLENPDPRGAA,0.462 ± 0.33,0.00907 ± 0.0072
purE I32D (protein) MSSRNNPARVAIVMGSKSDWATMQFAAEIFEDLNVPHHVEVVSAHRTPDKLFSFAESAEENGYQVIIAGAGGAAHLPGMIAAKTLVPVLGVPVQSAALSGVDSLYSIVQMPRGIPVGTLAIGKAGAANAALLAAQILATHDKELHQRLNDWRKAQTDEVLENPDPRGAA,0.489 ± 0.19,
purE V91W (protein) MSSRNNPARVAIVMGSKSDWATMQFAAEIFEILNVPHHVEVVSAHRTPDKLFSFAESAEENGYQVIIAGAGGAAHLPGMIAAKTLVPVLGWPVQSAALSGVDSLYSIVQMPRGIPVGTLAIGKAGAANAALLAAQILATHDKELHQRLNDWRKAQTDEVLENPDPRGAA,0.953 ± 0.75,< 0.00639
purE I32W (protein) MSSRNNPARVAIVMGSKSDWATMQFAAEIFEWLNVPHHVEVVSAHRTPDKLFSFAESAEENGYQVIIAGAGGAAHLPGMIAAKTLVPVLGVPVQSAALSGVDSLYSIVQMPRGIPVGTLAIGKAGAANAALLAAQILATHDKELHQRLNDWRKAQTDEVLENPDPRGAA,0.537 ± 0.58,0.029 ± 0.035
purE V91Q (protein) MSSRNNPARVAIVMGSKSDWATMQFAAEIFEILNVPHHVEVVSAHRTPDKLFSFAESAEENGYQVIIAGAGGAAHLPGMIAAKTLVPVLGQPVQSAALSGVDSLYSIVQMPRGIPVGTLAIGKAGAANAALLAAQILATHDKELHQRLNDWRKAQTDEVLENPDPRGAA,0.477 ± 0.17,< 0.00739
